The source of these data is ChEMBL document CHEMBL4888484, “Replenishing the malaria drug discovery pipeline: Screening and hit evaluation of the MMV Hit Generation Library 1 (HGL1) against asexual blood stage Plasmodium falciparum ,using a nano luciferase reporter read-out” (2022).

The structures appear in SMILES notation. Screen size: about 150,000 compounds; about 540 (0.36%) showed an effect of 50% or more. Some of the results follow.

The test system of the assay is Plasmodium falciparum. The experiment in a line: Primary screen in NF54 nanoGlo assay, in single point, at 2uM, 72h; a lower Z score goes with more inhibition. It is filed as functional, Erythrocyte. The conditions noted are these: timepoint 72 hour.
One may read the % Inhibition as the relative decrease from the control value, in per cent. Consider `O=C(NC(CO)C(O)c1ccc(Cl)cc1)C1(C(F)F)CCCC1` (centres undefined), for which the “% Inhibition” value amounted to 4% and the Z score is -0.81.

Take `CCS(=O)(=O)NCCNCc1ccc(C#Cc2cn[nH]c2)cc1`: the “% Inhibition” value is on record as -12% and the Z score stood at 1.55.

For the compound `COc1ccc([C@@H](NC(=O)CCCN(C)S(=O)(=O)c2ccc(C(C)=O)cc2)c2nccn2C)cc1`, the “% Inhibition” value was found to be 8% and the Z score is listed as -0.67.

With `CN(C)S(=O)(=O)CC(=O)NCC(C)(C)Cc1cccc(Cl)c1`, the “% Inhibition” value turned out to be 0% and the Z score is listed as 0.04.

`COc1ccc(-c2ccc3c(c2)OC[C@@H](N2CCCC2)[C@@H]3O)c2ccc(C)nc12`: the “% Inhibition” value is given as -10% and the Z score is listed as 1.47.

On to `Cc1ccccc1C1C2C(=O)N(c3cccc4ccccc34)C(=O)C2ON1c1ccccc1` (centres undefined), for which the “% Inhibition” value was -3% and the Z score is reported as 0.36.

Take `CC(NC(=O)CNC(C)(CO)C1CCCCC1)c1ccco1` (centres undefined): the “% Inhibition” value is recorded as -8% and the Z score is reported as 0.8.

Consider `CS(=O)(=O)c1ccccc1N1CC2CCCC2C1` (centres undefined), for which the “% Inhibition” value is given as -13% and the Z score amounted to 1.3.

Consider `O=C(c1cc(OCC(F)F)ccn1)N1CCC12COC2`, for which the “% Inhibition” value was -11% and the Z score was found to be 1.69.

For the compound `CCC(Oc1ccc2c(c1)C(c1cccc(C)c1)N(C(C)=O)CC2)C(=O)NCc1ccccc1` (centres undefined), the “% Inhibition” value was -12% and the Z score amounted to 1.36.

Take `CCn1nc(C)c(CN/C(=N\c2cccc(C)c2)NC(=O)c2ccccc2F)c1C`: the “% Inhibition” value is -16% and the Z score came to 2.66.

Regarding `Cc1nn(-c2cccc(F)c2)c2nc3c(c(N)c12)C(=O)CCC3`, the “% Inhibition” value turned out to be 25% and the Z score is on record as -3.23.

On to `CCOc1ccc(-n2nnnc2CNS(=O)(=O)c2ccc3ccccc3c2)cc1`, for which the “% Inhibition” value came to 17% and the Z score is reported as -2.21.

Regarding `COc1ccc(C(=O)Nc2nnc(Cc3nc4ccccc4s3)s2)cc1Br`, the “% Inhibition” value turned out to be 8% and the Z score is listed as -0.96.

For `C[C@@H](c1ccccn1)N(C)Cc1cc(CN2CCCCC2)cs1`, the “% Inhibition” value is 15% and the Z score was -2.69.

Consider `CC(C)Cc1noc(CN(C)Cc2coc(C(C)C)n2)n1`, for which the “% Inhibition” value was -6% and the Z score was found to be 0.79.

As for `CC(=O)N1CC[C@H]2CN(CCc3ccccc3)C[C@@]2(c2nc(C)no2)C1`, the “% Inhibition” value is reported as 3% and the Z score is on record as -0.42.

On to `CC[C@H](NC(=O)c1ccnc2[nH]cnc12)C(=O)OC`, for which the “% Inhibition” value is -12% and the Z score is 2.21.

With `CCNc1ccnc(N2C[C@H](C3CC3)[C@@H](N(C)C)C2)n1`, the “% Inhibition” value is given as -10% and the Z score was determined as 1.85.

For `O=C1[C@@H]2C[C@@H](O)CN2C2(CN(Cc3ccncc3)C2)C(=O)N1Cc1ccccc1`, the “% Inhibition” value is recorded as -1% and the Z score worked out at 0.11.

With `CC(C)(C)CS(=O)(=O)NC(=O)Cc1c(F)cccc1F`, the “% Inhibition” value is recorded as -9% and the Z score worked out at 1.42.

As for `CCN(CC)C(=O)[C@H](C)NC(=O)c1ccoc1`, the “% Inhibition” value is recorded as -11% and the Z score came out at 1.77.

In the case of `Cc1ccc(CCC(=O)N(C)c2cccnc2N2CCCC2)s1`, the “% Inhibition” value came to 8% and the Z score is listed as -1.3.

`CCOC(=O)Cc1csc(NC(=O)Cc2c[nH]c3ccccc23)n1`: the “% Inhibition” value came to 33% and the Z score is listed as -4.46.

Take `O=C(c1cnn2ccncc12)N1CCCC2(CCCCC2)CC1`: the “% Inhibition” value is -11% and the Z score came to 1.48.

Consider `O=C(CCc1ccccn1)Nc1c(F)cccc1NC1CC1`, for which the “% Inhibition” value is 5% and the Z score was -0.74.

As to `CN(Cc1ccco1)C(=O)CN1C[C@H](F)C[C@H]1C(N)=O`, the “% Inhibition” value is listed as -4% and the Z score came out at 0.64.

As for `C[C@H](NC(=O)c1ccc(CN2C(=O)CNC2=O)cc1)c1ccc(F)cc1F`, the “% Inhibition” value is reported as -15% and the Z score was 2.65.

In the case of `Cc1cc(C(=O)NCC2CCCC(O)C2)nc(-c2ccc(Cl)cc2)n1` (centres undefined), the “% Inhibition” value was -15% and the Z score came out at 1.93.

For `CCOC(=O)N1CCN(C(=O)c2cc(-c3ccccc3F)nc3cc(-c4ccccc4)nn23)CC1`, the “% Inhibition” value was -5% and the Z score turned out to be 0.8.

Turning to `O=C(NC1CCCCCC1)N1CCC[C@H](Cn2cc(C3CC3)nn2)C1`, the “% Inhibition” value is -4% and the Z score came to 0.64.

For the compound `Cn1nc(NC(=O)c2cc3c(cn2)OCCC3)cc1C1CC1`, the “% Inhibition” value was -2% and the Z score was 0.35.

Turning to `Cc1cc(Cl)ccc1NC(=O)c1cc2n(n1)CCCN(Cc1ccc(F)cc1)C2=O`, the “% Inhibition” value is -7% and the Z score turned out to be 0.81.

On to `CC(C)c1cc(NC(=O)N2CCC[C@H](n3ccc(C(F)(F)F)n3)C2)no1`, for which the “% Inhibition” value was -3% and the Z score was 0.33.

Take `O=C(c1ccc(Oc2ccccc2)o1)N1CCN(c2cnccn2)CC1`: the “% Inhibition” value was -8% and the Z score is listed as 0.8.

As for `COC(=O)C(C)(C)CS(=O)(=O)N1CCCC2(CCCCC2)C1`, the “% Inhibition” value was -6% and the Z score worked out at 0.49.

In the case of `CCC(NC(=O)Nn1cnnc1)(C(F)(F)F)C(F)(F)F`, the “% Inhibition” value was determined as 26% and the Z score was -2.97.

For `Cc1ccc(N2C[C@H](NC(=O)C3(C#N)CCOCC3)[C@@H](C3CC3)C2)nn1`, the “% Inhibition” value is recorded as -5% and the Z score worked out at 0.75.

For `CCc1ncoc1C(=O)N(C)CCc1ccccc1C`, the “% Inhibition” value was -3% and the Z score was 0.3.

Regarding `COC(=O)C12CCCC1CN(Cc1ccccc1NC(C)=O)C2` (centres undefined), the “% Inhibition” value is 0% and the Z score came to 0.04.

In the case of `Cc1ccc(Oc2nc(-c3ccccc3)nc3ccsc23)cc1`, the “% Inhibition” value is on record as -7% and the Z score was 0.96.

For `CCn1cc(Br)cc1C(=O)N(C)CC(F)(F)F`, the “% Inhibition” value was -7% and the Z score was found to be 0.78.
